Experiment [1] addresses T1, 14-3-3 omega:mEGFP (Arabidopsis) (UniProt Q01525).
T1 sequence: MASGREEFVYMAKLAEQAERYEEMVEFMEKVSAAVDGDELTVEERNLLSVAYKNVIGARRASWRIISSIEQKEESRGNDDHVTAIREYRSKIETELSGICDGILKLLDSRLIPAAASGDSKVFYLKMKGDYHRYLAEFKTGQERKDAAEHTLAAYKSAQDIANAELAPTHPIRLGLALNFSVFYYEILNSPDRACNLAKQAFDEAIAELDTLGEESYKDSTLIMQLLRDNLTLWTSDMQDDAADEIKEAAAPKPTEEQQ
Nature of the experiment: condition: only dark-adapted plants kept in darkness; co-IP; as a3, but dark-adapted N. benthamiana plants kept in darkness (D); GFP beads; anti-GFP and anti-RFP blots.

Protein sequences, listed by entry. Tags and fused reporters are not part of them.
UniProt O48963: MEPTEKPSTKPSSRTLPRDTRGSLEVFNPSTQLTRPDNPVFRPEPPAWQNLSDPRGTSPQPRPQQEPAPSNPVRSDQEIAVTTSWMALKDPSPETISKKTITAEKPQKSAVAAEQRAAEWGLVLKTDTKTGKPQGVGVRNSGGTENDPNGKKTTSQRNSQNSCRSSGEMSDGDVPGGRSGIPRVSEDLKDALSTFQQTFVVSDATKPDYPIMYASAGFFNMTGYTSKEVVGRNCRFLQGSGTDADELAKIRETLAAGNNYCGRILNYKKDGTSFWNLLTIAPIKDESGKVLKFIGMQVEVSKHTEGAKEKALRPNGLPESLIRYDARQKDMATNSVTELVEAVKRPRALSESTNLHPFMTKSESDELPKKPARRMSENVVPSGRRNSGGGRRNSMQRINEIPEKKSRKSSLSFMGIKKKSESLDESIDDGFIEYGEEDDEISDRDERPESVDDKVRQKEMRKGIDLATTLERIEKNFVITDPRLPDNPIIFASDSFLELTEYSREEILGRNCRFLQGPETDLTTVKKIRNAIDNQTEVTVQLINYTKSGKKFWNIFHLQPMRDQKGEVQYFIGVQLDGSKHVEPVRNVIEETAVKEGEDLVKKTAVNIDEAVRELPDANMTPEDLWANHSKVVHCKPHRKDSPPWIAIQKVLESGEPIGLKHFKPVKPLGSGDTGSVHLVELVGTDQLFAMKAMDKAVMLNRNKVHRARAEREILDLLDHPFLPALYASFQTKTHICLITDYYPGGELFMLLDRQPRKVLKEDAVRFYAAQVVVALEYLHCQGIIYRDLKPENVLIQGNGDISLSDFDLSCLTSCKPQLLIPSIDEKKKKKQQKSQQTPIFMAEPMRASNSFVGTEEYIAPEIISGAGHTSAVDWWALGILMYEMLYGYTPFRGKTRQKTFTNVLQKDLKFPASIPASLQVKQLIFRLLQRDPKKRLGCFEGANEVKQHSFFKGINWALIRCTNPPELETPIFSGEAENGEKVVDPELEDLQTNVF

Experiment [2] has as its target T1, 14-3-3 omega:mEGFP (Arabidopsis). As to the kind of experiment: co-IP; N. benthamiana leaves co-expressing both proteins (35S promoter), kept under constant light for 42 h or dark-adapted and treated with blue light (10 μmol m^-2 s^-1, 40 min); crude extract precipitated with GFP beads (GFP-Trap); anti-GFP and anti-RFP blots.
The target in experiment [3] is T2, Arabidopsis 14-3-3 isoform epsilon, yeast two-hybrid fusion (Arabidopsis) (UniProt P48347).
T2 sequence: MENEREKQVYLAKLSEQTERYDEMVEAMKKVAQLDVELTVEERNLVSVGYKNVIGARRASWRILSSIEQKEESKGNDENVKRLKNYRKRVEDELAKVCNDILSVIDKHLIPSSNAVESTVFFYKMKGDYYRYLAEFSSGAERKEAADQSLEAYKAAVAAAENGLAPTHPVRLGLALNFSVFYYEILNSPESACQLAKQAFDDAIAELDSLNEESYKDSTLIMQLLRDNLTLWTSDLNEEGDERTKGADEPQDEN
As to the kind of experiment: two-hybrid; constructs in pGADT7 and pGBKT7 co-transformed into yeast strain PJ69-4A; ADE2 reporter, growth on SD medium lacking adenine.

For experiment [4], the target named is T3, Arabidopsis 14-3-3 isoform omega, yeast two-hybrid fusion (Arabidopsis) (UniProt Q01525).
T3 sequence: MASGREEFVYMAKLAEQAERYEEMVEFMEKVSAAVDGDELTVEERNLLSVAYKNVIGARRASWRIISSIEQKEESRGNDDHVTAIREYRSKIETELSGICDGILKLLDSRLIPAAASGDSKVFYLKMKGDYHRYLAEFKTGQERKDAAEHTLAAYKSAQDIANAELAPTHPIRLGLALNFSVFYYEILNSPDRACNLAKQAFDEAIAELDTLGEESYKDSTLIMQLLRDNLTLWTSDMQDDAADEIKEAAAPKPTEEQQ
The experiment is described as above.

The next experiment addresses phot1:GFP (Arabidopsis) (UniProt O48963). As to the kind of experiment: co-IP; solubilized (0.5% Triton X-100) microsomal proteins from dark-adapted N. benthamiana co-expressing phot1:GFP and RFP:NPH3 variants; GFP-Trap beads, 4 °C, 1 h; washed with 50 mM HEPES pH 7.8, 150 mM NaCl, 0.2% Triton X-100.

Results are given in words; binding and its absence hold for the method and conditions named. For some of these results: Binding seen in cells or lysates may run through a third protein. Some entries that bind do so weakly or less than the wild type. For some of these results: Tags and fused reporters may be left off the sequences shown.

B1: mCherry:NPH3 (protein, UniProt Q9FMF5 1-746)
chain: MMWESESDGGVGVGGGGGREYGDGVLSSNKHGGVKTDGFELRGQSWFVATDIPSDLLVKIGDMNFHLHKYPLLSRSGKMNRLIYESRDPDPTILILDDLPGGPEAFELASKFCYGVPVDLTATNISGLRCAAEYLEMTEDLEEGNLIFKTEAFLSYVVLSSWRDSILVLKSCEKLSPWAENLQIVRRCSESIAWKACSNPKGIRWAYTGKAPSPSTTNFAGSSPRWNESKDSSFYCSPSRNTNSQPVPPDWWFEDVSILRIDHFVRVITAIKVKGMRFELLGAVIMHYAGKWLPGLIKEGGVAIAPAMSSAIGGGLGLGGDEMSISCGSNSSGGSSGPDWKGGLHMVLSAGKTNGHQDSVACLAGLGISPKDQRMIVESLISIIPPQKDSVTCSFLLRLLRAANMLKVAPALITELEKRVGMQFEQATLQDLLIPGYNNKGETMYDVDLVQRLLEHFLVQEQTEGSSPSRMSPSPSQSMYADIPRGNNNNGGGGGGNNQNAKMRVARLVDSYLTEVARDRNLPLTKFQVLAEALPESARTCDDGLYRAIDSYLKAHPTLSEHERKRLCRVMDCQKLSMDACMHAAQNERLPLRVVVQVLFSEQVKISNALANTSLKESTTLGEAMGTYQPMIPNRKTLIEATPQSFQEGWAAAKKDINTLKFELETVKTKYVELQNEMEVMQRQFEKTGKVKNTPSSSAWTSGWKKLSKLTKMSGQESHDISSGGEQAGVDHPPPRKPRRWRNSIS
For B1, the binding result is “no binding” in experiment [1] and “binds” in experiment [2].

B2: mCherry:NPH3-S744A (protein, UniProt Q9FMF5 1-746)
chain: MMWESESDGGVGVGGGGGREYGDGVLSSNKHGGVKTDGFELRGQSWFVATDIPSDLLVKIGDMNFHLHKYPLLSRSGKMNRLIYESRDPDPTILILDDLPGGPEAFELASKFCYGVPVDLTATNISGLRCAAEYLEMTEDLEEGNLIFKTEAFLSYVVLSSWRDSILVLKSCEKLSPWAENLQIVRRCSESIAWKACSNPKGIRWAYTGKAPSPSTTNFAGSSPRWNESKDSSFYCSPSRNTNSQPVPPDWWFEDVSILRIDHFVRVITAIKVKGMRFELLGAVIMHYAGKWLPGLIKEGGVAIAPAMSSAIGGGLGLGGDEMSISCGSNSSGGSSGPDWKGGLHMVLSAGKTNGHQDSVACLAGLGISPKDQRMIVESLISIIPPQKDSVTCSFLLRLLRAANMLKVAPALITELEKRVGMQFEQATLQDLLIPGYNNKGETMYDVDLVQRLLEHFLVQEQTEGSSPSRMSPSPSQSMYADIPRGNNNNGGGGGGNNQNAKMRVARLVDSYLTEVARDRNLPLTKFQVLAEALPESARTCDDGLYRAIDSYLKAHPTLSEHERKRLCRVMDCQKLSMDACMHAAQNERLPLRVVVQVLFSEQVKISNALANTSLKESTTLGEAMGTYQPMIPNRKTLIEATPQSFQEGWAAAKKDINTLKFELETVKTKYVELQNEMEVMQRQFEKTGKVKNTPSSSAWTSGWKKLSKLTKMSGQESHDISSGGEQAGVDHPPPRKPRRWRNAIS
Regarding B2, the binding entry in experiment [2] is “no binding”.

B3: NPH3-S744E, yeast two-hybrid fusion (protein, UniProt Q9FMF5 1-746)
chain: MMWESESDGGVGVGGGGGREYGDGVLSSNKHGGVKTDGFELRGQSWFVATDIPSDLLVKIGDMNFHLHKYPLLSRSGKMNRLIYESRDPDPTILILDDLPGGPEAFELASKFCYGVPVDLTATNISGLRCAAEYLEMTEDLEEGNLIFKTEAFLSYVVLSSWRDSILVLKSCEKLSPWAENLQIVRRCSESIAWKACSNPKGIRWAYTGKAPSPSTTNFAGSSPRWNESKDSSFYCSPSRNTNSQPVPPDWWFEDVSILRIDHFVRVITAIKVKGMRFELLGAVIMHYAGKWLPGLIKEGGVAIAPAMSSAIGGGLGLGGDEMSISCGSNSSGGSSGPDWKGGLHMVLSAGKTNGHQDSVACLAGLGISPKDQRMIVESLISIIPPQKDSVTCSFLLRLLRAANMLKVAPALITELEKRVGMQFEQATLQDLLIPGYNNKGETMYDVDLVQRLLEHFLVQEQTEGSSPSRMSPSPSQSMYADIPRGNNNNGGGGGGNNQNAKMRVARLVDSYLTEVARDRNLPLTKFQVLAEALPESARTCDDGLYRAIDSYLKAHPTLSEHERKRLCRVMDCQKLSMDACMHAAQNERLPLRVVVQVLFSEQVKISNALANTSLKESTTLGEAMGTYQPMIPNRKTLIEATPQSFQEGWAAAKKDINTLKFELETVKTKYVELQNEMEVMQRQFEKTGKVKNTPSSSAWTSGWKKLSKLTKMSGQESHDISSGGEQAGVDHPPPRKPRRWRNEIS
Turning to B3, the binding result in experiment [3] and in experiment [4] was “no binding” in each case.

B4: RFP:NPH3-S744A (protein, UniProt Q9FMF5 1-746)
chain: MMWESESDGGVGVGGGGGREYGDGVLSSNKHGGVKTDGFELRGQSWFVATDIPSDLLVKIGDMNFHLHKYPLLSRSGKMNRLIYESRDPDPTILILDDLPGGPEAFELASKFCYGVPVDLTATNISGLRCAAEYLEMTEDLEEGNLIFKTEAFLSYVVLSSWRDSILVLKSCEKLSPWAENLQIVRRCSESIAWKACSNPKGIRWAYTGKAPSPSTTNFAGSSPRWNESKDSSFYCSPSRNTNSQPVPPDWWFEDVSILRIDHFVRVITAIKVKGMRFELLGAVIMHYAGKWLPGLIKEGGVAIAPAMSSAIGGGLGLGGDEMSISCGSNSSGGSSGPDWKGGLHMVLSAGKTNGHQDSVACLAGLGISPKDQRMIVESLISIIPPQKDSVTCSFLLRLLRAANMLKVAPALITELEKRVGMQFEQATLQDLLIPGYNNKGETMYDVDLVQRLLEHFLVQEQTEGSSPSRMSPSPSQSMYADIPRGNNNNGGGGGGNNQNAKMRVARLVDSYLTEVARDRNLPLTKFQVLAEALPESARTCDDGLYRAIDSYLKAHPTLSEHERKRLCRVMDCQKLSMDACMHAAQNERLPLRVVVQVLFSEQVKISNALANTSLKESTTLGEAMGTYQPMIPNRKTLIEATPQSFQEGWAAAKKDINTLKFELETVKTKYVELQNEMEVMQRQFEKTGKVKNTPSSSAWTSGWKKLSKLTKMSGQESHDISSGGEQAGVDHPPPRKPRRWRNAIS
For the molecule B4, in the experiment with phot1:GFP (Arabidopsis), the binding entry is listed as “binds”.

B5: RFP:NPH3ΔC28 (domain or fragment, UniProt Q9FMF5 1-718)
chain: MMWESESDGGVGVGGGGGREYGDGVLSSNKHGGVKTDGFELRGQSWFVATDIPSDLLVKIGDMNFHLHKYPLLSRSGKMNRLIYESRDPDPTILILDDLPGGPEAFELASKFCYGVPVDLTATNISGLRCAAEYLEMTEDLEEGNLIFKTEAFLSYVVLSSWRDSILVLKSCEKLSPWAENLQIVRRCSESIAWKACSNPKGIRWAYTGKAPSPSTTNFAGSSPRWNESKDSSFYCSPSRNTNSQPVPPDWWFEDVSILRIDHFVRVITAIKVKGMRFELLGAVIMHYAGKWLPGLIKEGGVAIAPAMSSAIGGGLGLGGDEMSISCGSNSSGGSSGPDWKGGLHMVLSAGKTNGHQDSVACLAGLGISPKDQRMIVESLISIIPPQKDSVTCSFLLRLLRAANMLKVAPALITELEKRVGMQFEQATLQDLLIPGYNNKGETMYDVDLVQRLLEHFLVQEQTEGSSPSRMSPSPSQSMYADIPRGNNNNGGGGGGNNQNAKMRVARLVDSYLTEVARDRNLPLTKFQVLAEALPESARTCDDGLYRAIDSYLKAHPTLSEHERKRLCRVMDCQKLSMDACMHAAQNERLPLRVVVQVLFSEQVKISNALANTSLKESTTLGEAMGTYQPMIPNRKTLIEATPQSFQEGWAAAKKDINTLKFELETVKTKYVELQNEMEVMQRQFEKTGKVKNTPSSSAWTSGWKKLSKLTKMSGQES
On to B5, for which the binding entry with phot1:GFP (Arabidopsis) is “binds”.

Values taken from publication PMC8531446, “Light-triggered and phosphorylation-dependent 14-3-3 association with NON-PHOTOTROPIC HYPOCOTYL 3 is required for hypocotyl phototropism” (Nature Communications, 2021).
